Relative growth recovery data for 27 compounds are collected here from the supplement of paper PMC12340641.

Whole data set: some 1,000 compounds, median “relative growth recovery (pomalidomide 10 uM = 100%, DMSO = 0%)” near -1.6, cut for the highest 2% near 21. The list shows a part of the results.

The subject of this assay is HEK293FT dCK*-IKZF1. In words: relative growth recovery (pomalidomide 10 uM = 100%, DMSO = 0%); higher = more growth rescue (IKZF1 fusion degradation). The following applies: compound concentration: 5 uM; AraC concentration: 0.3 uM; overnight pretreatment + 4 days AraC. How it is done:
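Growth recovery screen of the molecular-glue-like (Specs) library. HEK293FT cells expressing a dCK*-IKZF1 fusion (primary) or dCK* alone (counter) were pretreated overnight with compound at 5 uM, then given 0.3 uM AraC for 4 days. Hoechst nuclei were counted by imaging. Primary: normalised to pomalidomide (100%) and DMSO (0%), mean of 2 replicates. Counter: normalised to no-AraC (100%) and AraC+DMSO (0%), single replicate.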
Consider `Cc1csc(Nc2cccc(C3CCCN3C(=O)COc3c(C)cccc3C)n2)n1` (configuration not stated), for which the relative growth recovery is -1.58%. To `Cc1csc(Nc2cccc(CC3CCN(CC(=O)N(C)C)CC3)n2)n1` belongs 4.04%; to `Cc1onc(-c2ccccc2)c1C(=O)Nc1ccc(S(=O)(=O)Nc2ncccn2)cc1`, -15.9%.

For `COc1ccc(OCCCC(=O)Nc2ccc(S(=O)(=O)Nc3ncccn3)cc2)cc1`, the relative growth recovery was -3.56%. Take `O=C(CN1C(=O)C2CCCCC2C1=O)Nc1ccc(S(=O)(=O)Nc2ncccn2)cc1` (configuration not stated): the relative growth recovery was -0.23%. In the case of `Cc1csc(Nc2cccc(C3CCN(C(=O)C4CC=CCC4)CC3)n2)n1` (configuration not stated) it was -3.74%. In the case of `Cc1csc(Nc2cccc(C3CCN(C(=O)c4nccc5ccccc45)CC3)n2)n1` it was -0.34%. To `COc1ccc(NC(=O)CN2CCC(c3cccc(Nc4nc(C)cs4)n3)CC2)cc1` belongs 32.9%. On to `NC(=O)CN1CCC(Cc2cccc(Nc3nccs3)n2)CC1`, for which the relative growth recovery was -17.2%. As to `Cc1ccnc(NS(=O)(=O)c2ccc(NC(=O)c3ccccc3F)cc2)n1`, the relative growth recovery turned out to be 1.59%. `COc1ccc(C(=O)Nc2ccc(S(=O)(=O)Nc3cc(OC)nc(OC)n3)cc2)c(OC)c1`: the relative growth recovery came to 3.94%.

For the compound `CC(=O)Nc1ccc(C(=O)Nc2ccc(S(=O)(=O)Nc3ncccn3)cc2)cc1`, the relative growth recovery came out at 1.06%.

Turning to `O=C(/C=C/c1ccco1)N1CCCC(c2csc(Nc3ccccn3)n2)C1` (configuration not stated), the relative growth recovery came out at 18.9%. To `COc1cc(OC)cc(C(=O)Nc2ccc(S(=O)(=O)Nc3ccccn3)cc2)c1` belongs -2.01%; to `O=C(Nc1ccc(S(=O)(=O)Nc2ncccn2)cc1)C(F)(F)F`, 12.6%.

As to `CCCc1cnc(Nc2cccc(C3CCN(C(=O)C4CCCCN4CCO)CC3)n2)s1` (configuration not stated), the relative growth recovery was -3.4%. To `Cc1ccc(Cl)cc1NC(=O)CSc1nnc2c(n1)[nH]c1ccc(F)cc12` belongs -5.29%; to `Cc1nc2ccccn2c1CC(=O)N1CCOC(c2cccc(Nc3nccs3)n2)C1` (configuration not stated), 10.9%; to `COc1cc(OC)cc(C(=O)Nc2ccc(S(=O)(=O)Nc3nc(C)cc(C)n3)cc2)c1`, -2.46%. To `CCCC(=O)Nc1ccc(S(=O)(=O)Nc2cc(OC)nc(OC)n2)cc1` belongs -4.17%; to `Cc1cc(Cl)ccc1OCC(=O)Nc1ccc(S(=O)(=O)Nc2ncccn2)cc1`, -2.19%.

As to `CCc1ccc(OCC(=O)Nc2ccc(S(=O)(=O)Nc3nc(C)cc(C)n3)cc2)cc1`, the relative growth recovery is 4.75%. In the case of `CCCc1nc2ccccc2n1CC(=O)N1CCOC(c2cccc(Nc3ncc(C)s3)n2)C1` (configuration not stated) it was -10.1%; in that of `Cc1ccn(CCC(=O)N2CCOC(c3cccc(Nc4ncc(C)s4)n3)C2)n1` (configuration not stated), 2.46%.

Turning to `Cc1cccc(C)c1OCC(=O)Nc1ccc(S(=O)(=O)Nc2ccccn2)cc1`, the relative growth recovery is -10.1%. In the case of `CC(=O)N1CCC(c2cccc(Nc3ncc(C)s3)n2)CC1` it was -19%; in that of `CCc1ccccc1OCC(=O)Nc1ccc(S(=O)(=O)Nc2nc(C)cc(C)n2)cc1`, -4.88%.
